Assay results: PubChem BioAssay AID1240 (Sanford-Burnham Center for Chemical Genomics, 2008)
Out of some 50,000 compounds screened, about 800 (1.6%) showed an effect of 50% or more. The list shows a part of the results.

target: Bcl-2-like protein 10 (Homo sapiens) (UniProt Q9HD36); assay: Phenotype converters, Bcl-B/TR3 peptide binding displacement, primary biochemical FP (AID 1240); settings: GST-Bcl-B / FITC-TR3 peptide fluorescence polarization; stronger effect = higher value; compound at 3.75 mg/L;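 note: 0% = Bcl-B with tracer peptide and DMSO and 100% = tracer peptide lacking Bcl-B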
UniProt Q9HD36, sequence (Q9HD36 whole entry, looked up): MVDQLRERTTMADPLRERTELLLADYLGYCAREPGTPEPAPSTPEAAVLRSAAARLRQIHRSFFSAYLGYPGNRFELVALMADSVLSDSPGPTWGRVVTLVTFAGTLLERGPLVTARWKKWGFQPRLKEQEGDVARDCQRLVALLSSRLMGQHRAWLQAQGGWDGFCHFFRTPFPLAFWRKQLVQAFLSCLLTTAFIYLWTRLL

| SMILES | displacement |
| --- | --- |
| COc1ccc(/C=C/C(=O)Nc2ccccc2Cl)cc1OC | -2.5% |
| C#Cc1cccc(NS(=O)(=O)c2ccc(NC(C)=O)cc2)c1 | 2.4% |
| CCC(=O)C1=C(N2CCOCC2)CC(C)(C)CC1=O | -18.9% |
| C#CCOc1c(Cl)cc(C2C(C(=O)OC)=C(C)NC3=C2C(=O)c2ccccc23)cc1Cl (centres undefined) | 13.1% |
| NC(=O)SCC(=O)Nc1cccc(F)c1 | 6.8% |
| O=C(Nc1ccc(F)c(F)c1)c1cnccn1 | -3.3% |
| CCOc1ccc(C=Nc2ccc(I)cc2)cc1 | -7.2% |
| COc1ccc(/C=C2\N=C(c3ccccc3F)OC2=O)c(OC)c1 | 72.1% |
| CCOc1ccccc1NC(=O)c1c(NC(=O)c2ccccc2Cl)sc2c1CCCC2 | -4.6% |
| NC(=O)COc1ccc(/C=c2/sc3n(c2=O)CCCN=3)cc1 | 6.4% |
| CCC(COC(C)=O)NC1=C(Cl)C(=O)c2ccccc2C1=O (centres undefined) | 9.8% |
| CC(=O)/C=C/c1oc2ccc([N+](=O)[O-])cc2c1-c1ccc(C)o1 | 80.9% |
| CCOP(=O)(CN(C)S(=O)(=O)c1ccc(C)cc1)OCC | -24.9% |
| CCOC(=O)Nc1ccc2c(c1)N(C(=O)CCN)c1ccccc1S2 | 3.8% |
| C=CCNC(=O)C(=O)NCc1ccccn1 | -0.3% |
| COC(=O)C1=C(C)NC(=O)NC1c1cccc(I)c1 (centres undefined) | 2.2% |
| O=C(c1nn2c(C(F)(F)F)cc(-c3ccco3)nc2c1Cl)N1CCN(Cc2ccccc2)CC1 | 1.1% |
| Cc1cc(=O)[nH]c2cc(-c3ccccc3)nn12 | -11.5% |
| CCOC(=O)c1c(NC(C)=O)sc2cc(C(C)(C)C)ccc12 | -4.1% |
| COc1ccc(NC(=O)/C(=C\c2ccccc2OC)NC(=O)c2ccccc2OC)cc1 | 3% |
| COc1cc(C2SC(NC(C)=O)=NN2C(C)=O)cc(OC)c1OC (centres undefined) | -9.1% |
| O=C(CSc1nc2ccc(NC(=O)c3ccc(Cl)cc3Cl)cc2s1)Nc1ccccc1 | 31% |
| COc1ccc(-c2nc3cc(NC(=O)c4ccc5c(c4)OCCO5)ccc3o2)cc1Br | 2.7% |
| COc1cc(C(=O)Oc2ccc(/C=N/NC(=O)COc3cccc4ccccc34)cc2)cc(OC)c1OC | 0.1% |
| COc1ccc(N(CC(=O)Nc2cc(OC)ccc2OC)S(=O)(=O)c2ccc(OC)c(OC)c2)cc1 | 16.8% |
| CCc1ccccc1N(CC(=O)OC)S(C)(=O)=O | 10.2% |
| CN(C)/C=C1/C=C(c2ccccc2)OC1=O | -11.5% |

| SMILES | displacement |
| --- | --- |
| O=C(CN1C(=O)/C(=C/c2cccc(Br)c2)SC1=S)Nc1cccnc1 | 9.6% |
| O=C(/C=C/c1ccccc1)Nc1nnc(-c2ccco2)s1 | 20.7% |
| COc1ccc(OC)c(/C=N\NC(=O)c2cnccn2)c1 | -1.9% |
| COc1ccc(C(=O)NCCCN2CCOCC2)cc1Br | -1.9% |
| COc1ccc(C(=O)CSc2nnc(-c3cccc(Br)c3)o2)cc1 | 11.1% |
| CCNC(=S)NNC(=O)CSc1nc2ccccc2n1CC | -27.3% |
| C/C(=N\NC(=O)c1cc(C2CC2)[nH]n1)c1ccc(Cl)cc1 | 6.3% |
| CCOc1cc(/C=C2\C(=O)NN(c3ccccc3)C2=O)cc(Br)c1O | -0.2% |
| COc1ccc(N=C2CC(C)(C)CC(O)=C2C(C)=O)cc1 | -18.1% |
| CCOC(=O)CN1C(c2ccccc2O)Nc2ccc(Br)cc2C1c1ccccc1 (centres undefined) | 20.7% |
| Cc1ccc(C2Nc3ccccc3NC3=C2C(=O)CC(c2ccc4c(c2)OCO4)C3)s1 (centres undefined) | -5.1% |
| CCOC(=O)c1c(NC(=O)CCN2C(=O)c3ccccc3C2=O)sc(C(C)=O)c1C | -7.5% |
| Cc1c(Cl)c([N+](=O)[O-])nn1CC(=O)Nc1ccc(S(N)(=O)=O)cc1 | -2.7% |
| O=C(/C=C/c1cccs1)c1ccncc1 | -7.9% |
| COc1ccc2ccccc2c1/C=N/NC(=O)c1cccc(Cl)c1 | -7.8% |
| C=CCOc1ccc(/C=C2\C(=O)N(c3ccc(S(N)(=O)=O)cc3)N=C2C)cc1OC | -1.6% |
| Cc1ccc(C(=O)Nc2c(C(=O)Nc3cccnc3)cnn2-c2ccccc2)cc1 | -3.3% |
| COc1cc(OC)cc(C(=O)Nc2ccc(C)c(C)c2)c1 | 8.7% |
| Cc1cccc(C)c1NC(=O)Nc1c(C)cccc1C | -1.4% |
| Cc1ccc(OCC(=O)N2CCc3ccccc3C2)cc1 | 7.1% |
| C=C(C)CSc1nc(N)c2c3c(sc2n1)COC(C)(CC)C3 (centres undefined) | -2.5% |
| COC(=O)c1ccc(/C=C2\C(=O)NC(=O)N(c3cc(C)cc(C)c3)C2=O)cc1 | 6.8% |
| O=C(N=Nc1c(O)[nH]c2c(Br)cc(Br)cc12)c1ccccn1 | 0.8% |
| O=C(c1cccc([N+](=O)[O-])c1)c1ccc2c(c1)C(=O)N(c1ccccc1C(=O)O)C2=O | -2.7% |
| CSCCC(C(=O)O)N1C(=O)/C(=C/c2cccc(O)c2)SC1=S (centres undefined) | 13% |
| CN(C)c1ccc(/C=N/NC(=O)C(=O)N/N=C/c2ccc(N(C)C)cc2)cc1 | 1% |
| CC(=O)Cc1cc(O)c2ccccc2c1OC(=O)c1ccc(Br)cc1 | -2.7% |
